Molecules are shown by their SMILES. Hit rate of the full screen: of about 50,000 compounds, about 800 (1.6%) showed an effect of 50% or more. This is one part of the list.

This test has as its target Bcl-2-like protein 10 (Homo sapiens) (UniProt Q9HD36). The experiment in a line: TR3 peptide-Bcl-B binding displacers, biochemical primary FP assay, phenotype converters (AID 1240).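 Also: 0% = Bcl-B with tracer peptide and DMSO and 100% = tracer peptide lacking Bcl-B.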 The settings on record: GST-Bcl-B / FITC-TR3 peptide fluorescence polarization; stronger effect = higher value; compound at 3.75 mg/L. For orientation: In fluorescence polarisation assays a small probe gives low polarisation when free and higher when bound to something large.
UniProt Q9HD36, sequence (Q9HD36 whole entry, looked up): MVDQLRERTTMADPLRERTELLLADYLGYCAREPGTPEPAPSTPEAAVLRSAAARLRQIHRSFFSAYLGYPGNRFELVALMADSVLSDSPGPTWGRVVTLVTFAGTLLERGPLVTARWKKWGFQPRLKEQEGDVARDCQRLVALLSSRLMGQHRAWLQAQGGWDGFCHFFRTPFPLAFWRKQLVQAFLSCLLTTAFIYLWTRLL
Regarding `O=C(NC(=S)Nc1ccccc1SC(F)(F)C(F)(F)C(F)(F)F)c1cccs1`, the displacement was -9.7%.

For the compound `COC(=O)C1=C(C(=O)OC)SC(=C2C(=S)C(C)(C)N(C(=O)c3ccccc3F)c3cc(C)ccc32)S1`, the displacement is -7.9%.

In the case of `O=C(CSc1n[nH]c(=O)[nH]c1=O)c1ccccc1[N+](=O)[O-]`, the displacement is -4.9%.

Turning to `Cc1cccc(/C=C(/C#N)C(=O)Nc2cccc(Br)c2)c1`, the displacement is -3.7%.

Regarding `CC(=O)CC(=O)Nc1ccccc1-c1ccccc1`, the displacement was -9.2%.

Turning to `CC(=O)c1cccc(NC(=O)COc2ccc(-c3ccc(C)cc3)cc2)c1`, the displacement worked out at 5.6%.

With `O=C(Nc1cccc(C(F)(F)F)c1)C1CN(S(=O)(=O)c2ccccc2)CCN1S(=O)(=O)c1ccccc1` (stereo not drawn), the displacement is 8.8%.

As for `COc1ccc(Nc2ccccc2)c(C)c1`, the displacement was -9.3%.

On to `O=c1[nH]c(=O)n(Cc2ccc(F)cc2)c(O)c1/C=C1/C=CC=N1`, for which the displacement worked out at 32%.

On to `COc1ccc(C=Nc2cccc(-c3cnc[nH]3)c2)cc1`, for which the displacement was 1%.

For the compound `COc1nc(N=C(N)N)nc2c(C)cccc12`, the displacement was -2.9%.

With `COc1ccc(C2CC(C(F)(F)F)n3nc(C(=O)Nc4ccc5c(c4)OCO5)c(Cl)c3N2)cc1OC` (stereo not drawn), the displacement was 15.9%.

In the case of `CN1CCN(C(=O)c2sc3cc(Cl)ccc3c2Cl)CC1`, the displacement worked out at 1%.

As for `COc1ccc(CCNC(=O)COc2ccc(OC)cc2)cc1`, the displacement came to 13.5%.

`O=C(NC(C(=O)O)C12CC3CC(CC(C3)C1)C2)c1ccc([N+](=O)[O-])cc1` (stereo not drawn): the displacement was -2.7%.

Turning to `O=C/C(=C\Nc1cccc(N/C=C(\C=O)c2nc3cc(Cl)ccc3o2)n1)c1nc2cc(Cl)ccc2o1`, the displacement was found to be 36.2%.

For the compound `Cc1cccc(N=C2NC(=O)CS2)c1C`, the displacement was 9.5%.

On to `CC(=O)CC(=O)Nc1ccccc1Br`, for which the displacement was 7.3%.

`O=S(=O)(NCCc1ccccc1)c1ccc2ccccc2c1`: the displacement was found to be 1.6%.

Consider `CC1=C(C(=O)c2ccccc2)C(c2cccc([N+](=O)[O-])c2)NC(=O)N1` (stereo not drawn), for which the displacement was determined as 1.1%.

For `O=P(OCCN1CCOCC1)(c1ccccc1)c1ccccc1`, the displacement was found to be 18.9%.

Take `CCC(=O)Nc1cc(-c2nc3ccccc3o2)ccc1OC`: the displacement is -8.7%.

With `CC1=C(C#N)c2nc(N)c(C#N)c(C)c2/C1=C/c1ccc(-c2ccc([N+](=O)[O-])cc2)o1`, the displacement is -2.6%.

For the compound `CCc1cc(C)cc(OCCn2cc(C=C3C(=O)NC(=S)NC3=O)c3ccccc32)c1`, the displacement turned out to be 14.7%.

For the compound `O=C1CN(C(=O)c2ccc(F)cc2)c2ccccc2N1`, the displacement was determined as 15.5%.

As for `O=C1N/C(=N\N=C\c2ccccc2O)SC1Cc1ccc(Br)cc1` (stereo not drawn), the displacement was -3.5%.

Consider `O=C1/C(=C/c2ccc(F)cc2)SC(=S)N1c1ccc(F)cc1`, for which the displacement amounted to 11.8%.

Turning to `CC1C(C)C(O)(c2ccccc2)CCN1C` (stereo not drawn), the displacement is -4.2%.

Consider `O=C(CSCC(=O)Nc1ccc2c(c1)oc1ccccc12)Nc1ccccc1`, for which the displacement was 0%.

For the compound `COc1ccc(-c2cc(C3CC3)nc(SC)c2C#N)cc1`, the displacement amounted to 0.1%.

Regarding `Cc1c(NC(=O)C2(C)CCCCC2)c(=O)n(-c2ccccc2)n1C`, the displacement stood at 5.8%.

Turning to `O=C(Nc1ccccc1Cl)c1ccc2ccccc2n1`, the displacement was 1%.

Consider `CC(=O)OC1(C[N+](=O)[O-])C2CC3CC(C2)CC1C3` (stereo not drawn), for which the displacement is -4.7%.

`CCOC(=O)C1=C(O)/C(=C/c2ccc(OCC(N)=O)cc2)N=C1C`: the displacement is 40%.

For `Cc1ccc(C(O)(c2ccccc2)c2ccccc2C(C)N(C)C)c(C)c1` (stereo not drawn), the displacement stood at 3%.

As for `O=C1CCCC(=O)C1c1cc(NS(=O)(=O)c2ccccc2)ccc1NS(=O)(=O)c1ccccc1`, the displacement is 6.1%.

`CC(=O)c1c(N2CCCC2)nc(=S)n(-c2ccccc2)c1C`: the displacement turned out to be 1.1%.

In the case of `O=C1CC(N(Cc2ccc3c(c2)OCO3)C(=S)Nc2ccccc2)C(=O)N1c1ccc(Cl)cc1` (stereo not drawn), the displacement was -2.1%.

Consider `CCOC(=O)c1ccc(NC(=O)C(=O)NCCOC)cc1`, for which the displacement was -2.9%.

For the compound `COc1cc2c(cc1NC(=O)CCN1C(=O)c3ccccc3C1=O)oc1ccccc12`, the displacement was 4.6%.

Take `C=CCc1cc(/C=C2\C(=O)NC(=O)N(c3ccc(C)cc3)C2=O)cc(OC)c1OCC(=O)OC`: the displacement was -0.2%.

In the case of `O=C(O)C1CCCCC1C(=O)Nc1nc(-c2ccc([N+](=O)[O-])cc2)cs1` (stereo not drawn), the displacement is -5.4%.

Consider `O=C(Cc1ccc(Cl)cc1)N/N=C/Cc1ccccc1`, for which the displacement stood at 4.7%.

For the compound `CCN(CC)C(=O)CSc1nc2ccc([N+](=O)[O-])cc2s1`, the displacement came to 4.3%.

Turning to `COc1ccc(C(=O)NNC(=O)c2ccccc2OC)cc1OC`, the displacement turned out to be 0%.

As for `COc1ccc(N2C(=O)/C(=C\c3cc4c(cc3[N+](=O)[O-])OCO4)SC2=S)cc1`, the displacement was 10%.

For the compound `CC(C)CC(=O)NC(NC(=O)CC(C)C)c1ccccc1`, the displacement amounted to 1%.

Take `C=CCN1C(=O)CSC1=Nc1ccc(C(=O)O)cc1`: the displacement was -2.4%.

For the compound `CC(=O)c1ccc(NC(=S)NC(NC(=O)c2ccccc2)C(Cl)(Cl)Cl)cc1` (stereo not drawn), the displacement is -5.8%.

On to `COc1cc(NS(=O)(=O)c2ccc(C)cc2)cc(OC)c1O`, for which the displacement was determined as 13.5%.

On to `CCC(C(=O)Nc1cc(C)on1)c1ccccc1` (stereo not drawn), for which the displacement was 3.2%.

Take `COc1cccc(N2C(=O)/C(=C/C(C)=C/c3ccccc3)SC2=S)c1`: the displacement came out at 0.4%.

In the case of `O=C(CSCC(=O)Nc1ccc2ccccc2c1)NCc1ccccc1`, the displacement turned out to be 12.2%.

In the case of `O=C1c2ccc(Oc3ccc([N+](=O)[O-])cc3)cc2C(=O)N1c1cccc(-c2nc3ccccc3o2)c1`, the displacement was -3.8%.

Take `N#Cc1ccccc1NC(=O)Nc1cccc(Cl)c1`: the displacement was 18.9%.

For `CCc1ccc(-n2c(C)cc(/C=N/NC(=O)c3ccncc3)c2C)cc1`, the displacement was -35.3%.

`COc1ccc2oc(=O)c(C(=O)Nc3ccc(S(N)(=O)=O)cc3)cc2c1`: the displacement was 10.9%.

Turning to `CC(C)c1nnc(NC(=O)CSc2ncn[nH]2)s1`, the displacement came out at 9.4%.

For `Cc1cccc(OCC(=O)n2cnnc2N)c1`, the displacement came to 11.4%.

As for `Cc1ccc(-n2nc3cc(C)c(NC(=O)c4ccc([N+](=O)[O-])cc4)cc3n2)cc1`, the displacement was -1.5%.

For the compound `COc1ccc(CCNC(=O)c2sc3cc(C)ccc3c2Cl)cc1OC`, the displacement was -4.3%.

Take `CCOC(=O)c1c(C)[nH]c(C)c1-c1ccccc1Cl`: the displacement was 5.8%.

Turning to `CCCc1cc(=O)oc2cc(OCc3cccc(Cl)c3)ccc12`, the displacement was -0.7%.

Regarding `COc1ccc(NC(=O)c2ccc(CN(c3cc(Cl)ccc3C)S(=O)(=O)c3ccccc3)cc2)c(OC)c1`, the displacement turned out to be 10.8%.

On to `CC(=O)Nc1ccc2sc(C)nc2c1`, for which the displacement was found to be 12.9%.

With `O=C(N/C(=C\c1cccnc1)C(=O)N1CCNCC1)c1ccccc1`, the displacement was -0.3%.

In the case of `CC(=O)c1ccc(N2C(=O)CC(N3CCN(c4ccccn4)CC3)C2=O)cc1` (stereo not drawn), the displacement was -0.9%.

Take `Cc1ccc(NC(=O)c2cc(-c3cccs3)nc3ccccc23)cc1`: the displacement came to 2.6%.

For `C=CCc1cccc2cc(C(=O)NC3=C(C#N)CCC3)c(=O)oc12`, the displacement is -6.2%.

`COc1cc(/C=C2/S/C(=N\S(=O)(=O)c3ccccc3)NC2=O)ccc1O`: the displacement is -23.7%.

Regarding `OC(CCOc1cccc2ccccc12)CN1CCN(CC(O)COc2cccc3ccccc23)CC1` (stereo not drawn), the displacement was -1%.

Take `CCN(CC)CCCCCOc1ccc(Cl)cc1`: the displacement is 10%.

Consider `O=C(c1ccccc1)c1ccc(C(=O)N2CCN(c3ccc(F)cc3)CC2)o1`, for which the displacement was -8.1%.

For the compound `NC(=O)NC(Cc1c[nH]c2ccccc12)C(=O)O` (stereo not drawn), the displacement worked out at 8.6%.

Consider `Cc1cc([N+](=O)[O-])ccc1N/C=C/C(=O)c1ccc(Cl)c(Cl)c1`, for which the displacement stood at 36.3%.

On to `O=C1CCCc2c1[nH]c1ccc(C34CC5CC(CC(C5)C3)C4)cc21`, for which the displacement worked out at 13%.

In the case of `O=C(c1cccc(Cl)c1)N1CCN(Cc2cccnc2)CC1`, the displacement was -3.6%.

Turning to `Cc1ccc(/C=C2\SC(=S)N(CCC(=O)Nc3ccc(S(N)(=O)=O)cc3)C2=O)cc1`, the displacement was 7.1%.

For the compound `C=CCn1c(SCC(=O)NCc2cccnc2)nc2sc(C)c(C)c2c1=O`, the displacement is 1.4%.

Turning to `O=C/C(=C\Nc1ccc(S(=O)(=O)CCO)cc1)c1nc2ccccc2o1`, the displacement is 9.7%.

Regarding `COc1ccc(C2NC(=O)NC(O)(C(F)(F)F)C2C(=O)c2ccc(Br)cc2)cc1` (stereo not drawn), the displacement amounted to 12.2%.

Regarding `Clc1ccc(/C=N/Nc2nc3ccccc3s2)c(Cl)c1`, the displacement came out at 16.9%.

Consider `O=C(N/C(=C/c1cccs1)c1nc2ccccc2[nH]1)c1ccccc1`, for which the displacement turned out to be 10.1%.

Regarding `CCC(C)c1ccc(NC(=O)c2ccc3c(c2)OCCO3)c(O)c1` (stereo not drawn), the displacement was 2.4%.

With `Cc1ccc(C(=O)O/N=C(\N)c2ccc(Cl)cc2)cc1[N+](=O)[O-]`, the displacement is 1.3%.

Regarding `COc1ccc(Cl)cc1NC(=O)c1nn2c(c1Cl)NC(c1cccs1)CC2C(F)(F)F` (stereo not drawn), the displacement was -1.8%.

As for `CCc1nc2ccccc2c(NC(=O)CNC(C)(C)CC(C)(C)C)c1C`, the displacement is -10.1%.

Turning to `CCCCN(C)C(=O)c1ccc(C(=O)N(C)CCCC)cc1`, the displacement was -3.6%.

With `CCOc1ccc(C(=O)N2CCN(Cc3ccccc3)CC2)cc1`, the displacement amounted to 12.4%.

`O=C(NC1CCCCC1)ON=C(c1ccccc1)c1ccccc1`: the displacement is 12.4%.

Consider `O=C(COc1ccc(Cl)cc1)NNC(=O)c1ccccc1[N+](=O)[O-]`, for which the displacement was -3.5%.

For `COc1ccc(C(=O)NCCOc2ccc(C)cc2)cc1OC`, the displacement came to 6.1%.

As for `O=C(CSc1ncn[nH]1)Nc1cccc(C(F)(F)F)c1`, the displacement worked out at 1.1%.

As for `Cc1ccc(OCC(=O)Nc2ccccc2-c2ccccc2)c(Br)c1`, the displacement is -6%.

On to `CC(=O)c1ccc(NC(=O)c2cc(S(=O)(=O)N3CCOCC3)ccc2Cl)cc1`, for which the displacement is -8.5%.

With `CCCC1C(=O)CC(c2ccccc2)N(C)C1c1ccccc1` (stereo not drawn), the displacement turned out to be 6.8%.

For `Oc1ccc2ccccc2c1CN1CCOCC1`, the displacement was found to be 16.6%.

Take `CC1=C(C(=O)c2ccccc2)C(c2ccc([N+](=O)[O-])cc2)NC(=O)N1` (stereo not drawn): the displacement is -11.6%.

Regarding `CCN(CC)C(=O)c1c(NC(=O)c2ccc([N+](=O)[O-])cc2)sc2c1CCCCC2`, the displacement was 4.6%.

On to `CC(C)=N/N=C1/NC(=O)C(CC(=O)Nc2cc(Cl)ccc2C)S1` (stereo not drawn), for which the displacement is -13.5%.

With `COc1cc(C=O)ccc1OCc1ccccc1COc1ccc(/C=C2/SC(=S)NC2=O)cc1OC`, the displacement was 12.7%.

`C=CCOc1cccc(/C=N/NS(=O)(=O)c2ccc(Cl)cc2)c1`: the displacement was found to be 7.1%.

For the compound `CCOc1cc(/C=C2\C(=O)NC(=O)N(c3ccc(Cl)cc3)C2=O)c(Br)cc1OC`, the displacement was -49.7%.

As for `C=CCn1cc(F)c(=O)n(CC=C)c1=O`, the displacement was 12.4%.

Take `O=S(=O)(NCc1ccc(F)cc1)c1ccccc1`: the displacement is -18.5%.

For `O=C(Nc1ccc(Cl)c([N+](=O)[O-])c1)c1ccc(-c2ccccc2)cc1`, the displacement worked out at 0.1%.

As to `Cc1ccc(N(CC(=O)N2CCOCC2)S(C)(=O)=O)cc1`, the displacement was determined as 2.4%.

Regarding `Cc1cccc(C(C)C)c1NC(=O)CCCOc1ccc(Cl)cc1Cl`, the displacement came to 12.8%.
